# Results: patent publication US20210213102A1 (Innovent, published 2021)
# B1: Y045 (IL-2^WT-2*(G4S)-FcLALA) (Fc fusion)
# chain: not shown
# B2: Y040 (IL-2^3X-2*(G4S)-FcLALA) (Fc fusion)
# chain: APTSSSTKKTQLQLEHLLLDLQMILNGINNYKNPKLTDMLTFEFYMPKKATELKHLQCLERELKPLEEVLNLAQSKNFHLRPRDLISNINVIVLELKGSETTFMCEYADETATIVEFLNRWITFSQSIISTLTGGGGSGGGGS[human IgG1 Fc with changes skipped]
# B3: Y056 (IL-2^glycan5.15BCL-2*(G4S)-FcLALA) (Fc fusion)
# chain: APTSSSTKKTQLQLEHLLLDLQMILNGINNYKNPKLTRMLTFNFTMPKKATELKHLQCLEEELKPLEEVLNLSGDASIHDLISNINVIVLELKGSETTFMCEYADETATIVEFLNRWITFSQSIISTLTGGGGSGGGGS[human IgG1 Fc with changes skipped]
# modifications: introduced N-glycosylation motif K43N-F44-Y45T
# B4: Y081 (IL-2^glycan5.truncate1-2*(G4S)-FcLALA) (Fc fusion)
# chain: APTSSSTKKTQLQLEHLLLDLQMILNGINNYKNPKLTRMLTFNFTMPKKATELKHLQCLEEELKPLEEVLNLAQSKNFHDLISNINVIVLELKGSETTFMCEYADETATIVEFLNRWITFSQSIISTLTGGGGSGGGGS[human IgG1 Fc with changes skipped]
# modifications: introduced N-glycosylation motif K43N-F44-Y45T
# B5: Y038 (IL-2^glycan5-2*(G4S)-FcLALA) (Fc fusion)
# chain: APTSSSTKKTQLQLEHLLLDLQMILNGINNYKNPKLTRMLTFNFTMPKKATELKHLQCLEEELKPLEEVLNLAQSKNFHLRPRDLISNINVIVLELKGSETTFMCEYADETATIVEFLNRWITFSQSIISTLTGGGGSGGGGS[human IgG1 Fc with changes skipped]
# modifications: introduced N-glycosylation motif K43N-F44-Y45T
# B6: Y082 (IL-2^glycan5.truncate2-2*(G4S)-FcLALA) (Fc fusion)
# chain: APTSSSTKKTQLQLEHLLLDLQMILNGINNYKNPKLTRMLTFNFTMPKKATELKHLQCLEEELKPLEEVLNLAGSKNFHDLISNINVIVLELKGSETTFMCEYADETATIVEFLNRWITFSQSIISTLTGGGGSGGGGS[human IgG1 Fc with changes skipped]
# modifications: introduced N-glycosylation motif K43N-F44-Y45T
# B7: Y001 (IL-2^WT-GSGS-FcLALA) (Fc fusion)
# chain: not shown
# notes: Expressed in Expi293/HEK293 cells, protein A purified; also called IL-2-GSGS-FcLALA; IL-2^WT-FC
# B8: Y002 (IL-2^3X-GSGS-FcLALA) (Fc fusion)
# chain: APTSSSTKKTQLQLEHLLLDLQMILNGINNYKNPKLTDMLTFEFYMPKKATELKHLQCLERELKPLEEVLNLAQSKNFHLRPRDLISNINVIVLELKGSETTFMCEYADETATIVEFLNRWITFSQSIISTLTGSGS[human IgG1 Fc with changes skipped]
# notes: Literature mutant IL-2^3X made and tested here as an Fc fusion; also called IL-2^3X-FC
# B9: Y008 (IL-2^glycan2-GSGS-FcLALA) (Fc fusion)
# chain: APTSSSTKKTQLQLEHLLLDLQMILNGINNYKNPKLTNMSTFKFYMPKKATELKHLQCLEEELKPLEEVLNLAQSKNFHLRPRDLISNINVIVLELKGSETTFMCEYADETATIVEFLNRWITFSQSIISTLTGSGS[human IgG1 Fc with changes skipped]
# modifications: introduced N-glycosylation motif R38N-M39-L40S
# notes: also called L008 as Fc fusion
# B10: Y009 (IL-2^glycan3-GSGS-FcLALA) (Fc fusion)
# chain: APTSSSTKKTQLQLEHLLLDLQMILNGINNYKNPKLTRMLTFKFYMPKKATELKHLQCLEEELKPLENVSNLAQSKNFHLRPRDLISNINVIVLELKGSETTFMCEYADETATIVEFLNRWITFSQSIISTLTGSGS[human IgG1 Fc with changes skipped]
# modifications: introduced N-glycosylation motif E68N-V69-L70S
# notes: also called L009 as Fc fusion
# B11: Y010 (IL-2^glycan4-GSGS-FcLALA) (Fc fusion)
# chain: APTSSSTKKTQLQLEHLLLDLQMILNGINNYKNPKLTRMLTFKFNMSKKATELKHLQCLEEELKPLEEVLNLAQSKNFHLRPRDLISNINVIVLELKGSETTFMCEYADETATIVEFLNRWITFSQSIISTLTGSGS[human IgG1 Fc with changes skipped]
# modifications: introduced N-glycosylation motif Y45N-M46-P47S
# notes: also called L010 as Fc fusion
# B12: Y011 (IL-2^glycan5-GSGS-FcLALA) (Fc fusion)
# chain: APTSSSTKKTQLQLEHLLLDLQMILNGINNYKNPKLTRMLTFNFTMPKKATELKHLQCLEEELKPLEEVLNLAQSKNFHLRPRDLISNINVIVLELKGSETTFMCEYADETATIVEFLNRWITFSQSIISTLTGSGS[human IgG1 Fc with changes skipped]
# modifications: introduced N-glycosylation motif K43N-F44-Y45T
# notes: also called YO11; L011 as Fc fusion
# B13: Y012 (IL-2^glycan6-GSGS-FcLALA) (Fc fusion)
# chain: APTSSSTKKTQLQLEHLLLDLQMILNGINNYKNPKLTRMLTFKFYMPKKATELKHLQCLEENLTPLEEVLNLAQSKNFHLRPRDLISNINVIVLELKGSETTFMCEYADETATIVEFLNRWITFSQSIISTLTGSGS[human IgG1 Fc with changes skipped]
# modifications: introduced N-glycosylation motif E62N-L63-K64T
# notes: also called L012 as Fc fusion
# B14: Y013 (IL-2^glycan7-GSGS-FcLALA) (Fc fusion)
# chain: APTSSSTKKTQLQLEHLLLDLQMILNGINNYKNPKLTRMLTFKFYMPKKATELKHLQCLEEELKPLEEVLNNATSKNFHLRPRDLISNINVIVLELKGSETTFMCEYADETATIVEFLNRWITFSQSIISTLTGSGS[human IgG1 Fc with changes skipped]
# modifications: introduced N-glycosylation motif L72N-A73-Q74T
# notes: also called L013 as Fc fusion
# B15: Y014 (IL-2^glycan8-GSGS-FcLALA) (Fc fusion)
# chain: APTSSSTKKTQLQLEHLLLDLQMILNGINNYKNPKLTRMLTFKFYMPKKATELKHLQCLEEELKPLEEVLNLANSTNFHLRPRDLISNINVIVLELKGSETTFMCEYADETATIVEFLNRWITFSQSIISTLTGSGS[human IgG1 Fc with changes skipped]
# modifications: introduced N-glycosylation motif Q74N-S75-K76T
# notes: also called L014 as Fc fusion
# B16: Y015 (IL-2^glycan9-GSGS-FcLALA) (Fc fusion)
# chain: APTSSSTKKTQLQLEHLLLDLQMILNGINNYKNPKLTRMLNFSFYMPKKATELKHLQCLEEELKPLEEVLNLAQSKNFHLRPRDLISNINVIVLELKGSETTFMCEYADETATIVEFLNRWITFSQSIISTLTGSGS[human IgG1 Fc with changes skipped]
# modifications: introduced N-glycosylation motif T41N-F42-K43S
# notes: also called L015 as Fc fusion
# B17: Y059 (IL-2^truncate3-GSGS-FcLALA) (Fc fusion)
# chain: APTSSSTKKTQLQLEHLLLDLQMILNGINNYKNPKLTRMLTFKFYMPKKATELKHLQCLEEELKPLEEVLNLAQSANFHDLISNINVIVLELKGSETTFMCEYADETATIVEFLNRWITFSQSIISTLTGSGS[human IgG1 Fc with changes skipped]
# notes: also called L059 as Fc fusion
# B18: Y017 (IL-2^hyb15BCL-GSGS-FcLALA) (Fc fusion)
# chain: APTSSSTKKTQLQLEHLLLDLQMILNGINNYKNPKLTRMLTFKFYMPKKATELKHLQCLEEELKPLEEVLNLSGDASIHDLISNINVIVLELKGSETTFMCEYADETATIVEFLNRWITFSQSIISTLTGSGS[human IgG1 Fc with changes skipped]
# notes: also called L017 as Fc fusion; B′C′ loop chimera
# B19: Y057 (IL-2^truncate1-GSGS-FcLALA) (Fc fusion)
# chain: APTSSSTKKTQLQLEHLLLDLQMILNGINNYKNPKLTRMLTFKFYMPKKATELKHLQCLEEELKPLEEVLNLAQSKNFHDLISNINVIVLELKGSETTFMCEYADETATIVEFLNRWITFSQSIISTLTGSGS[human IgG1 Fc with changes skipped]
# notes: also called L057 as Fc fusion
# B20: Y058 (IL-2^truncate2-GSGS-FcLALA) (Fc fusion)
# chain: APTSSSTKKTQLQLEHLLLDLQMILNGINNYKNPKLTRMLTFKFYMPKKATELKHLQCLEEELKPLEEVLNLAGSKNFHDLISNINVIVLELKGSETTFMCEYADETATIVEFLNRWITFSQSIISTLTGSGS[human IgG1 Fc with changes skipped]
# notes: also called L058 as Fc fusion
# B21: Y060 (IL-2^truncate4-GSGS-FcLALA) (Fc fusion)
# chain: APTSSSTKKTQLQLEHLLLDLQMILNGINNYKNPKLTRMLTFKFYMPKKATELKHLQCLEEELKPLEEVLNLAQSANIHDLISNINVIVLELKGSETTFMCEYADETATIVEFLNRWITFSQSIISTLTGSGS[human IgG1 Fc with changes skipped]
# notes: also called L060 as Fc fusion
# Target: T1, IL-2Rα (CD25) on primary human CD8+ CD25+ T cells (human, UniProt P01589 22-272)
# T1 sequence (looked up): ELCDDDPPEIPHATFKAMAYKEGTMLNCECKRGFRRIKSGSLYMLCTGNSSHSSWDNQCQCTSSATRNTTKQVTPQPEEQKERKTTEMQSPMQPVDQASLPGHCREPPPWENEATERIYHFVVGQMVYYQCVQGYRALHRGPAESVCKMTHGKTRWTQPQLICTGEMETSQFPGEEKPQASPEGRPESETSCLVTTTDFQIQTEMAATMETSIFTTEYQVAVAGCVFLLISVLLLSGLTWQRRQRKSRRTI
# Assay: cell-based or functional assay
row,Binder,CD25^- EC50/CD25^+ EC50 multiple
1,B1,467 fold
2,B2,8.4 fold
3,B3,46.9 fold
4,B4,3.3 fold

# Target: T2, human IL-2Rα (Uniprot P01589, aa22-217) with C-terminal avi tag and six-histidine tag (human, UniProt P01589 22-217)
# T2 construct: range 22-217; Expressed in 293F cells; monomer peak collected; also called CD25
# T2 sequence: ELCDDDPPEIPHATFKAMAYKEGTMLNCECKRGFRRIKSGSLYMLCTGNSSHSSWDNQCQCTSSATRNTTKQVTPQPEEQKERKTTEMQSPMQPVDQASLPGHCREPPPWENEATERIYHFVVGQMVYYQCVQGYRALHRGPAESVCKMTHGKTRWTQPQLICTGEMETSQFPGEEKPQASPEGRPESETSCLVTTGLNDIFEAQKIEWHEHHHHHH
# Assay: BLI, Fc fusion on AHC sensor, soluble receptor
# Protocol: (§1) The sensors were arranged according to the positions of the samples. The instrument settings were as follows: the operation procedures were Baseline, Loading −1 nm, Baseline, Association, and Dissociation; the run time of each procedure was dependent on the rates of association and dissociation; the rotation speed was 400 rpm, and the temperature was 30° C. The KD values were analyzed by ForteBio analysis software.
Binder,Kd,binding result
B1,50.3 nM,
B5,,no binding
B2,,no binding
B6,,no binding
B3,,no binding
B4,,no binding
B7,11.2 nM,
B8,,no binding
B9,42.3 nM,
B10,,no binding
B11,,no binding
B12,,no binding
B13,92.2 nM,
B14,,no binding
B15,10.3 nM,
B16,,no binding

# Target: T3, human IL-2Rβ (Uniprot P14784, aa27-240) with C-terminal avi tag and six-histidine tag (human, UniProt P14784 27-240)
# T3 construct: range 27-240; Expressed in 293F cells; monomer peak collected; also called CD122
# T3 sequence: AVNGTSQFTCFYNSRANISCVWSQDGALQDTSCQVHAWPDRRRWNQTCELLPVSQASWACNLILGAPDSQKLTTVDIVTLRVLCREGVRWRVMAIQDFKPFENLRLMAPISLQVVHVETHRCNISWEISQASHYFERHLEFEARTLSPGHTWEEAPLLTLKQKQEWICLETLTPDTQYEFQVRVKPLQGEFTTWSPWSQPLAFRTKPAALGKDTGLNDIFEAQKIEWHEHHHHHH
# Assay: BLI, Fc fusion on AHC sensor, soluble receptor
# Protocol: as §1
Binder,binding result,Kd
B5,no binding,
B3,,120 nM
B4,,260 nM
B7,no binding,
B17,,146 nM
B18,,88.7 nM
B19,,234 nM
B20,,344 nM
B21,,763 nM

# Target: T3, human IL-2Rβ (Uniprot P14784, aa27-240) …
# Assay: BLI; legend: binding was very weak and the fit was poor
row,Binder,binding result
1,B6,binds
